Some of the results follow.
system: PfSIP2 AP2 domain 1 (GST-tagged); assay: gcPBM binding intensity (ln(normalized median fluorescence intensity)); higher = stronger DNA binding
How it was run: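 Probes on an Agilent 4 × 180k array were primer-extended, double-stranded and 36 bp long, taken from intergenic genomic regions, with negative controls added. GST-tagged P. falciparum DNA-binding domains from E. coli, about 25 μg on average, were applied to the array for 1 h in 1× PBS containing 1% milk, 0.2 mg/ml BSA, 0.5% salmon testes DNA and 0.03% Triton X-100. Binding intensity, obtained after Alexa488 anti-GST antibody detection and a 488 nm scan, is the highest Masliner-normalised natural-log median intensity across replicate spots of either probe orientation.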

Which “gcPBM binding intensity (ln)” value does the source give for “ATGCATATAATTATATGTACATATAAGAAATATATA [XGTACX_site517]” here?
Its value is 7.05.

Which “gcPBM binding intensity (ln)” value does the source give for “CATTTATTATGATAAAGTACTTAAATTAATAGATAA [XGTACX_site3566]” here?
Its value is 6.89.

Which “gcPBM binding intensity (ln)” value does the source give for “TATGCACACAATATATGTACTTATATATTTTAAAAA [XGTACX_site5482]” here?
The value was 7.51.

With “TTTTATAAAAAAACTATAAAAATATATAGTACTTAA [CACACA_negctrl_site440]” as the sequence, how does the “gcPBM binding intensity (ln)” value read?
The value was 6.83.

Which “gcPBM binding intensity (ln)” value does the source give for “TCTTTTTTTTTTTTTTTTTCTTCTTCTCAATATAAA [GTGCAC_negctrl_site303]” here?
The value was 6.82.

Which “gcPBM binding intensity (ln)” value does the source give for “TAGTGTATGATAATATGTACATACATTTATATAATA [XGTACX_site6330]” here?
Its value is 7.

Which “gcPBM binding intensity (ln)” value does the source give for “CATAATATGTGGACTTTACACACTTGTTTTAAAATT [CACACA_site819]” here?
The value was 6.87.

For “CATATAAAGATATGAACACACAAAAAGAATATTTCC [CACACA_site6811]”, which “gcPBM binding intensity (ln)” value is on record?
Its value is 6.9.

“AATAATAAAAAATACACACACATATAAATATATTAC [CACACA_site7597]” was tested. Which “gcPBM binding intensity (ln)” value did it give?
Its value is 6.95.

Which “gcPBM binding intensity (ln)” value does the source give for “AGGACACATATATGCAAAAAAAAAAAAAAAAAAAAA [TGCATGCA_negctrl_site427]” here?
Its value is 6.98.

With “TTCCGAACGACCTAAAGTACATGTATTTCAACTTTT [XGTACX_site1220]” as the sequence, how does the “gcPBM binding intensity (ln)” value read?
Its value is 7.03.

“TTTTTTTCTCTTTTTATTACAAAAAGGGTTTATATA [TGCATGCA_negctrl_site75]” was tested. Which “gcPBM binding intensity (ln)” value did it give?
Its value is 6.77.

With “ATTATATTAATATATATATATATATATATAATAATA [CACACA_negctrl_site437]” as the sequence, how does the “gcPBM binding intensity (ln)” value read?
The value was 7.55.

“TAATATTATATTATATGTACATAACAAATTATATTT [XGTACX_site4296]” was tested. Which “gcPBM binding intensity (ln)” value did it give?
Its value is 7.24.

With “ATGAAAAAATTTAAATGTACATTACATATATTTATT [XGTACX_site2524]” as the sequence, how does the “gcPBM binding intensity (ln)” value read?
Its value is 6.98.

With “AAAAAAAATTCCAGTACACACAATAATACTAAAAAT [CACACA_site2801]” as the sequence, how does the “gcPBM binding intensity (ln)” value read?
The value was 6.99.

For “AAAAATTACAAAAATGCATGTACTATTCATATTTTT [TGCATGCA_site918]”, which “gcPBM binding intensity (ln)” value is on record?
Its value is 6.9.

“ATGAGTAACATATTTGTGCACATATGGTTATTTTTA [GTGCAC_site9541]” was tested. Which “gcPBM binding intensity (ln)” value did it give?
The value was 9.14.

“AAAAAAAATAATATTGTACACACATAAATTCTTTGT [CACACA_site8654]” was tested. Which “gcPBM binding intensity (ln)” value did it give?
The value was 6.89.

How did the “gcPBM binding intensity (ln)” value turn out when “TTTTATAAATACACACGTACGTGTGCATAACGTTTT [XGTACX_site3199]” was run?
Its value is 7.21.

Which “gcPBM binding intensity (ln)” value does the source give for “TACTTTTTAAAAATGTTTTATATAATAAAAAGATAT [CACACA_negctrl_site678]” here?
Its value is 7.06.

How did the “gcPBM binding intensity (ln)” value turn out when “TAAAAATATAAAACATGTACATATATGCATATATTT [XGTACX_site8093]” was run?
Its value is 6.96.

With “ATTATAAACCAGAATGCATGTAGATGAATCTTTTCT [TGCATGCA_site284]” as the sequence, how does the “gcPBM binding intensity (ln)” value read?
Its value is 6.72.

“ATATCATAAGTAGAAACACACAATTAGATTTTTTCC [CACACA_site2353]” was tested. Which “gcPBM binding intensity (ln)” value did it give?
Its value is 6.84.

How did the “gcPBM binding intensity (ln)” value turn out when “TAATTGAGCAAATGAGTGCACAGCATAAAGTATAGT [GTGCAC_site9497]” was run?
Its value is 10.2.

Which “gcPBM binding intensity (ln)” value does the source give for “AAATTTAAAATAAGTAGTACATAATATAAATAAATA [XGTACX_site3592]” here?
The value was 7.48.

How did the “gcPBM binding intensity (ln)” value turn out when “TATAAAAGAAACTATACACACATATTTTAAATATTT [CACACA_site2753]” was run?
The value was 6.76.

For “GTACTTGTATTATGCACACATATAATTAAACATATA [CACACA_site3312]”, which “gcPBM binding intensity (ln)” value is on record?
The value was 7.95.

“TAAGCCTTTCTATTATGTACTTATTAAAACATGTAG [XGTACX_site8022]” was tested. Which “gcPBM binding intensity (ln)” value did it give?
Its value is 7.12.

With “CTTATATTAAAACACACACACGCACAAAACAGAAAT [CACACA_site1462]” as the sequence, how does the “gcPBM binding intensity (ln)” value read?
The value was 7.43.

For “AAATTTATTTCTGTGTGTCCACAAAAAAAAATCTTT [XGTACX_site691]”, which “gcPBM binding intensity (ln)” value is on record?
Its value is 6.91.

“TTTTTTTTTTTCAATAGTACTTTCCATTTACATATA [XGTACX_site3889]” was tested. Which “gcPBM binding intensity (ln)” value did it give?
The value was 6.89.

With “AAATATATATAAAACTCACACATTATCTTATAACCA [CACACA_site5268]” as the sequence, how does the “gcPBM binding intensity (ln)” value read?
Its value is 6.88.

With “TTTAATAAAAAAATTAAAAATAAAGAAAAAAAAAAA [CACACA_negctrl_site1464]” as the sequence, how does the “gcPBM binding intensity (ln)” value read?
The value was 6.76.

With “ATGTATGGAAATTTTACACACAAGAGTAGTTTAAAA [CACACA_site1710]” as the sequence, how does the “gcPBM binding intensity (ln)” value read?
Its value is 6.68.

“AAAAAATAATATTGTACACACATAAATTCTTTGTCA [CACACA_site5187]” was tested. Which “gcPBM binding intensity (ln)” value did it give?
The value was 6.96.

With “TATGTGTATACAATATGTACATATGTTAACTTGTAT [XGTACX_site872]” as the sequence, how does the “gcPBM binding intensity (ln)” value read?
Its value is 7.26.

“GCGTAATCTATTTGCACACTTATTTGTTCTTAAAAA [CACACA_site672]” was tested. Which “gcPBM binding intensity (ln)” value did it give?
Its value is 7.41.

With “TTAAATAAATATAAGTGTACATACACACTTTACAAT [XGTACX_site6348]” as the sequence, how does the “gcPBM binding intensity (ln)” value read?
Its value is 6.8.

Which “gcPBM binding intensity (ln)” value does the source give for “GCATATGTTCAGCGTTGTACATAAAAAAAAACATAT [XGTACX_site5974]” here?
Its value is 7.23.

“TGAGATAACAAAAGTTGTACTTTTTTTTTTTTTTTT [XGTACX_site3004]” was tested. Which “gcPBM binding intensity (ln)” value did it give?
The value was 7.47.

“TTTTGAAAGTTTTTGTGTCCACATATATTTATATAT [XGTACX_site6563]” was tested. Which “gcPBM binding intensity (ln)” value did it give?
Its value is 7.12.

Which “gcPBM binding intensity (ln)” value does the source give for “GTTTAAAGTTGAACAAGTACACATTTATATAAGGCA [XGTACX_site351]” here?
Its value is 7.04.

With “TTTATTTATTACTAAAGTACTAAATCATATAATTAT [XGTACX_site3654]” as the sequence, how does the “gcPBM binding intensity (ln)” value read?
The value was 6.76.

With “ATATATGTTCCTTTTACACACATAATCTTTTTTTTA [CACACA_site2661]” as the sequence, how does the “gcPBM binding intensity (ln)” value read?
Its value is 7.29.

How did the “gcPBM binding intensity (ln)” value turn out when “TTTTTAAAAATATACACACACAGATATTATATATAT [CACACA_site786]” was run?
Its value is 7.65.

How did the “gcPBM binding intensity (ln)” value turn out when “AAAATATAATATAATGCACACATAAAAAAAAAAAAA [CACACA_site7989]” was run?
The value was 7.19.

“ATATTGTGTTATAAATGTACACAATTTCCTTTCATA [XGTACX_site7481]” was tested. Which “gcPBM binding intensity (ln)” value did it give?
Its value is 7.13.

With “ATATATATATGTATGTATATATATATATATGTTTGA [GTGCAC_negctrl_site561]” as the sequence, how does the “gcPBM binding intensity (ln)” value read?
Its value is 8.69.

How did the “gcPBM binding intensity (ln)” value turn out when “GGGGACGCGGGTGGGGGTACTCACACTATGCAAAAT [XGTACX_site7745]” was run?
The value was 8.85.

With “GTATCAATAAAAAACAGTACATATATAATATATTTA [XGTACX_site1083]” as the sequence, how does the “gcPBM binding intensity (ln)” value read?
The value was 6.93.

With “AAAAAAAAGGAAATAACACACATGTATATATCTATA [CACACA_site6856]” as the sequence, how does the “gcPBM binding intensity (ln)” value read?
Its value is 6.73.

How did the “gcPBM binding intensity (ln)” value turn out when “TTCATATAGAATTGTACACACAAAAACGACATTGTG [CACACA_site7061]” was run?
Its value is 7.02.

Which “gcPBM binding intensity (ln)” value does the source give for “TATACTCATAAATACACACACATATATATATATATA [CACACA_site5822]” here?
The value was 9.67.

“GGGGGCTTTTATAAAAGTACAAAATGAATAAAAATT [XGTACX_site2393]” was tested. Which “gcPBM binding intensity (ln)” value did it give?
Its value is 8.5.

With “TATACATACCCACCCACACACAAAAAAAAAAAAAAA [CACACA_site4632]” as the sequence, how does the “gcPBM binding intensity (ln)” value read?
The value was 7.3.
